{
  "source": "the supplement of paper PMC8728848",
  "experiment_in_all_cases": "glycan array binding signal (z-score within array); higher = stronger binding",
  "details_in_all_cases": "glycan notation: IUPAC condensed, linker removed",
  "key": {"Fuc(a1-2)Gal": {"target": "Fuc(a1-2)Gal", "in_short": "(§1)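 Arrays were curated from the Consortium for Functional Glycomics database, 3228 in total, and kept only where the protein sequence was available. Binding is expressed as a within-array Z-score. This score was averaged across arrays of the same protein sequence at different concentrations or buffers and across linkers, and negative values can be read as non-binding.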"}, "Fuc(a1-2)Gal(b1-3)GalNAc": {"target": "Fuc(a1-2)Gal(b1-3)GalNAc", "in_short": "as §1"}, "[1]": {"target": "Fuc(a1-2)Gal(b1-3)GalNAc(b1-3)Gal", "in_short": "as §1"}, "[2]": {"target": "Fuc(a1-2)Gal(b1-3)GalNAc(b1-3)Gal(a1-4)Gal(b1-4)Glc", "in_short": "as §1"}, "[3]": {"target": "Fuc(a1-2)Gal(b1-3)GalNAc(b1-4)[Neu5Ac(a2-3)]Gal(b1-4)Glc", "in_short": "as §1"}, "Fuc(a1-2)Gal(b1-3)GlcNAc": {"target": "Fuc(a1-2)Gal(b1-3)GlcNAc", "in_short": "as §1"}, "[4]": {"target": "Fuc(a1-2)Gal(b1-3)GlcNAc(b1-3)Gal(b1-4)Glc", "in_short": "as §1"}, "[5]": {"target": "Fuc(a1-2)Gal(b1-3)[Fuc(a1-4)]GlcNAc", "in_short": "as §1"}, "Fuc(a1-2)Gal(b1-4)Glc": {"target": "Fuc(a1-2)Gal(b1-4)Glc", "in_short": "as §1"}, "Fuc(a1-2)Gal(b1-4)Glc6S": {"target": "Fuc(a1-2)Gal(b1-4)Glc6S", "in_short": "as §1"}, "Fuc(a1-2)Gal(b1-4)GlcNAc": {"target": "Fuc(a1-2)Gal(b1-4)GlcNAc", "in_short": "as §1"}, "[6]": {"target": "Fuc(a1-2)Gal(b1-4)GlcNAc(b1-3)Gal(b1-4)GlcNAc", "in_short": "as §1"}, "[7]": {"target": "Fuc(a1-2)Gal(b1-4)GlcNAc(b1-3)Gal(b1-4)GlcNAc(b1-3)Gal(b1-4)GlcNAc", "in_short": "as §1"}, "[8]": {"target": "Fuc(a1-2)Gal(b1-4)GlcNAc6S", "in_short": "as §1"}, "[9]": {"target": "Fuc(a1-2)Gal(b1-4)[Fuc(a1-3)]GlcNAc", "in_short": "as §1"}, "[10]": {"target": "Fuc(a1-2)Gal(b1-4)[Fuc(a1-3)]GlcNAc(b1-3)Gal(b1-4)[Fuc(a1-3)]GlcNAc", "in_short": "as §1"}, "[11]": {"target": "Fuc(a1-2)Gal(b1-4)[Fuc(a1-3)]GlcNAc(b1-3)Gal(b1-4)[Fuc(a1-3)]GlcNAc(b1-3)Gal(b1-4)[Fuc(a1-3)]GlcNAc", "in_short": "as §1"}, "Fuc(a1-2)Gal6S(b1-4)Glc": {"target": "Fuc(a1-2)Gal6S(b1-4)Glc", "in_short": "as §1"}, "[12]": {"target": "Fuc(a1-2)Gal6S(b1-4)Glc6S", "in_short": "as §1"}, "[13]": {"target": "Fuc(a1-2)Gal6S(b1-4)GlcNAc", "in_short": "as §1"}, "Fuc(a1-2)[Gal(a1-3)]Gal": {"target": "Fuc(a1-2)[Gal(a1-3)]Gal", "in_short": "as §1"}, "[14]": {"target": "Fuc(a1-2)[Gal(a1-3)]Gal(b1-3)GlcNAc", "in_short": "as §1"}, "[15]": {"target": "Fuc(a1-2)[Gal(a1-3)]Gal(b1-4)Glc", "in_short": "as §1"}, "[16]": {"target": "Fuc(a1-2)[Gal(a1-3)]Gal(b1-4)GlcNAc", "in_short": "as §1"}, "[17]": {"target": "Fuc(a1-2)[Gal(a1-3)]Gal(b1-4)[Fuc(a1-3)]GlcNAc", "in_short": "as §1"}, "[18]": {"target": "Fuc(a1-2)[Gal(a1-4)]Gal(b1-4)GlcNAc", "in_short": "as §1"}, "[19]": {"target": "Fuc(a1-2)[GalNAc(a1-3)]Gal", "in_short": "as §1"}, "[20]": {"target": "Fuc(a1-2)[GalNAc(a1-3)]Gal(b1-3)GlcNAc", "in_short": "as §1"}, "[21]": {"target": "Fuc(a1-2)[GalNAc(a1-3)]Gal(b1-4)Glc", "in_short": "as §1"}, "[22]": {"target": "Fuc(a1-2)[GalNAc(a1-3)]Gal(b1-4)GlcNAc", "in_short": "as §1"}},
  "note": "This is one part of the list.",
  "data": [
    {"binder": "Angptl4 (Homo sapiens), Q9BY76 (protein) MSGAPTAGAALMLCAATAVLLSAQGGPVQSKSPRFASWDEMNVLAHGLLQLGQGLREHAERTRSQLSALERRLSACGSACQGTEGSTDLPLAPESRVDPEVLHSLQTQLKAQNSRIQQLFHKVAQQQRHLEKQHLRIQHLQSQFGLLDHKHLDHEVAKPARRKRLPEMAQPVDPAHNVSRLHRLPRDCQELFQVGERQSGLFEIQPQGSPPFLVNCKMTSDGGWTVIQRRHDGSVDFNRPWEAYKAGFGDPHGEFWLGLEKVHSITGDRNSRLAVQLRDWDGNAELLQFSVHLGGEDTAYSLQLTAPVAGQLGATTVPPSGLSVPFSTWDQDHDLRRDKNCAKSLSGGWWFGTCSHSNLNGQYFRSIPQQRQKLKKGIFWKTWRGRYYPLQATTMLIQPMAAEAAS", "values": [
      {"measurement": "glycan array binding signal (z-score)", "setting": "Fuc(a1-2)Gal", "value": -0.084},
      {"measurement": "glycan array binding signal (z-score)", "setting": "Fuc(a1-2)Gal(b1-3)GalNAc", "value": -0.122},
      {"measurement": "glycan array binding signal (z-score)", "setting": "[1]", "value": 5.26},
      {"measurement": "glycan array binding signal (z-score)", "setting": "[2]", "value": -0.105},
      {"measurement": "glycan array binding signal (z-score)", "setting": "[3]", "value": -0.11},
      {"measurement": "glycan array binding signal (z-score)", "setting": "Fuc(a1-2)Gal(b1-3)GlcNAc", "value": -0.55},
      {"measurement": "glycan array binding signal (z-score)", "setting": "[4]", "value": -0.134},
      {"measurement": "glycan array binding signal (z-score)", "setting": "[5]", "value": 0.847},
      {"measurement": "glycan array binding signal (z-score)", "setting": "Fuc(a1-2)Gal(b1-4)Glc", "value": 0.088},
      {"measurement": "glycan array binding signal (z-score)", "setting": "Fuc(a1-2)Gal(b1-4)Glc6S", "value": -0.343},
      {"measurement": "glycan array binding signal (z-score)", "setting": "Fuc(a1-2)Gal(b1-4)GlcNAc", "value": -0.071},
      {"measurement": "glycan array binding signal (z-score)", "setting": "[6]", "value": -0.396},
      {"measurement": "glycan array binding signal (z-score)", "setting": "[7]", "value": 0.616},
      {"measurement": "glycan array binding signal (z-score)", "setting": "[8]", "value": 0.465},
      {"measurement": "glycan array binding signal (z-score)", "setting": "[9]", "value": -0.311},
      {"measurement": "glycan array binding signal (z-score)", "setting": "[10]", "value": -0.246},
      {"measurement": "glycan array binding signal (z-score)", "setting": "[11]", "value": -0.407},
      {"measurement": "glycan array binding signal (z-score)", "setting": "Fuc(a1-2)Gal6S(b1-4)Glc", "value": -0.253},
      {"measurement": "glycan array binding signal (z-score)", "setting": "[12]", "value": -0.059},
      {"measurement": "glycan array binding signal (z-score)", "setting": "[13]", "value": -0.479},
      {"measurement": "glycan array binding signal (z-score)", "setting": "Fuc(a1-2)[Gal(a1-3)]Gal", "value": -0.253},
      {"measurement": "glycan array binding signal (z-score)", "setting": "[14]", "value": 0.242},
      {"measurement": "glycan array binding signal (z-score)", "setting": "[15]", "value": -0.199},
      {"measurement": "glycan array binding signal (z-score)", "setting": "[16]", "value": 0.087},
      {"measurement": "glycan array binding signal (z-score)", "setting": "[17]", "value": -0.192},
      {"measurement": "glycan array binding signal (z-score)", "setting": "[18]", "value": -0.112},
      {"measurement": "glycan array binding signal (z-score)", "setting": "[19]", "value": -0.107},
      {"measurement": "glycan array binding signal (z-score)", "setting": "[20]", "value": 0.292},
      {"measurement": "glycan array binding signal (z-score)", "setting": "[21]", "value": 0.454},
      {"measurement": "glycan array binding signal (z-score)", "setting": "[22]", "value": -0.08}
    ]}
  ]
}
